From the RNAGym collection of RNA variant scans (doi:10.7554/elife.90254)
Read counts are not given, so values of variants with three or more changes are uncertain.

B1: LINE1-mini (parent)
chain: GGCAGAGCUCAACACAGCGUGGCAAAGUGGCUGUGGCUAGACUGCC

Variants of: B1
Experiment: self-cleavage, relative activity (ratio to wild type); higher = more cleavage; in vitro, sequencing; the parent is a self-cleaving ribozyme

Variant	self-cleavage
GGCAGCGCCCAACACAGCGUGGCACAGUGGCUGUGGCGGGACUGCC [A6C U9C A25C U38G A39G]	0.01
GGCAGCGCUCAACACAGCGUGGCAAAGUGGCAGUGGCUGCACCGCC [A6C U32A A39G G40C U43C]	0.03
GGCAGCGCUCAACACAGCGGGGCAAAGUGGCUGUGGCCAUACUGCC [A6C U20G U38C G40U]	0.01
GGCAGCGCUCAACACAGCGCGGCAAAGUGGCUGUGGUUAGACUGCC [A6C U20C C37U]	0.05
GGCAGCGCACAACACAGUGAGCCAAAGUGGCUGUGGGUAAACUGCC [A6C U9A C18U U20A G22C C37G G40A]	0.01
GGCAGGGCUCUACACUGCGUGGCAAAGUGCCUGUGGCUAGACUGCC [A6G A11U A16U G30C]	0.03
GGCAGGGCUCUACACAUCGUGGCAAAUUGGUAGUGGCUAGACUGCC [A6G A11U G17U G27U C31U U32A]	0
GGCAGGGCUCGACACAGCCUAGCAAAGUGCCUUUGGCUAGACUGCC [A6G A11G G19C G21A G30C G33U]	0
GGCAGCGCGCAACACAGCUUGGCAAAGUGGCUGUGGCUAGACUGCC [A6C U9G G19U]	0.1
GGCAGCGCUCAACACAGCGUGGCAAAGUGGCUGUUGCUAGACUGCG [A6C G35U C46G]	0.07
GGCAGGGCUCAGCACAGCGUGGCAAAGAGGCUGUGGCUAGACCGCA [A6G A12G U28A U43C C46A]	0
GGCAGGGCUCUUCACAGCGUGGCAAAGUGGCUGUGCCUAGACUGCC [A6G A11U A12U G36C]	0.02
GGCAGGGCUCUACACAGCGUGGCAAAGUCGCUGUGGCUAGACUUCC [A6G A11U G29C G44U]	0.02
GGCAGGGCUCUACACAGUAUGGCAAAGUGGCUGUGGCUAGACUGGC [A6G A11U C18U G19A C45G]	0.02
GGCAGCGCUCAACACAGCGUGGCAAAGUUGCUGAGGCUAGACUGCC [A6C G29U U34A]	0.27
GGCAGCGCUCAACACAGCGUGGCAAAGUGAUUGUGGCUAGACUGCC [A6C G30A C31U]	0.1
GGCAGCGCUCAACACAGCGUGGCAAAGAGGCUGUGCCUAGACUGCC [A6C U28A G36C]	0.12
GGCAGGGCUCACCACAGCGUGCCAAAGUGGCUUUUGCUAGACUGCC [A6G A12C G22C G33U G35U]	0.04
GGCAGGGCUCGACACAGCGUGGCAAAGAGGCUGUGGCUGGACUGCC [A6G A11G U28A A39G]	0.01

Variant	self-cleavage
GGCAGCGCUCAACACAGCGUGGCAAAGUGGCUCUGGCUUGACUGUC [A6C G33C A39U C45U]	0.03
GGCAGCGCUCAACACAGCGUGGCAAAGUGGCAGUGGCUAAACUGCC [A6C U32A G40A]	0.01
GGCAGCGCUCAACACAGCGUGGCAAAGUGGCUGUGUAUAUACUGCA [A6C G36U C37A G40U C46A]	0.05
GGCAGGGCUCAGCACAGCCUGGCAAAGCGGCUGUGGCUAGACUGCC [A6G A12G G19C U28C]	0.02
GGCAGGGCUCACCACAGAGUGGCAAAGUGGCUGUGGCUAAACUGCC [A6G A12C C18A G40A]	0.02
GGCAGGGCUCCACACAGCGUGGCAUAGCGGCUGUGGCUAGACUACC [A6G A11C A25U U28C G44A]	0.01
GGCAGGGCUCUACACAGCAUGGCAAAGUGGCUGUGUCUAGACUGCC [A6G A11U G19A G36U]	0.01
GGCAGGGCUCAUCACAGCUUGGCAGAGUGGCUUUGGCUAGACCGCC [A6G A12U G19U A25G G33U U43C]	0.02
GGCAGCGCUCAACACAGCGUGGCAAAGUCGCUCUGGCUAGCCUACC [A6C G29C G33C A41C G44A]	0.03
GGCAGCGCCCAAUACAGCGUGGCAAAGUGGCUGUGGCUAGACUGCC [A6C U9C C13U]	0.01
GGCAGCGCUCAACACAGCGUGGCAAAGUGGCUGUGACUAGACUGUC [A6C G36A C45U]	0.03
GGCAGCGCCCAACAGAGCGUGGCAAAGGGACUGUGGCUAGACUGCG [A6C U9C C15G U28G G30A C46G]	0.01
GGCAGCGCACAACACAGCGUGGCAAAGUGGCUGUGGCUAUACUGCC [A6C U9A G40U]	0.07
GGCAGGGCUCAGCACAACGUGGCAAAGUGGCUGUGGCUAGACAGCC [A6G A12G G17A U43A]	0.02
GGCAGCGCUCAACACAGCGUGGCAAAGUUGCUGUGGCUUGACUGCC [A6C G29U A39U]	0.95
GGCAGGGCUCAACUCAGCGUGGCAACUUUGCUGUGGCUAUACUGCC [A6G A14U A26C G27U G29U G40U]	0.1
GGCAGCGCUCAACACAGCGUGGCAAAGUGGCGGUGGCUAGAAUGCC [A6C U32G C42A]	0.06
GGCAGGGCUCGACACAGCGUGGCCAACUGUCCGUGGCUAGACUGCC [A6G A11G A24C G27C G30U U32C]	0.01
GGCAGCGCGGAACACAGCGCGGCAAAGUGGCUGUGGUUAGACUGCC [A6C U9G C10G U20C C37U]	0.01

Variant	self-cleavage
GGCAGGGCUCCACACAGCGUGUCAACGUGGCUGUGGCUAGACUGCC [A6G A11C G22U A26C]	0
GGCAGGGCUCAACACCGCGUGGCAAAGUGGCUGUGGCUAGACUGUC [A6G A16C C45U]	0.09
GGCAGCGCCCAACACAGCGUGGCACAGUGGCUGUGGCUAGACAGCC [A6C U9C A25C U43A]	0.02
GGCAGGGCUCAGCACAGCGUGGCAAAGUGUCUGUGACUAGACUGCC [A6G A12G G30U G36A]	0.01
GGCAGCGCUCAACACAGCGAGGGAAAGUGGCUGUGGCUAGACUGCC [A6C U20A C23G]	0.07
GGCAGGGCUCAGCACAGCGUGGCAAAGUGCCUGCGGCUAGACUGCC [A6G A12G G30C U34C]	0.03
GGCAGCGCUCAACACAGCGUGGCAAAGUGCGUGUCGCUAGCCUGCC [A6C G30C C31G G35C A41C]	0.04
GGCAGCGCUCAACACAGCGGGGCAGAGUGGCUGUGGCUAGACUGCC [A6C U20G A25G]	0.12
GGCAGGGCUCCACACAUCGUGGCAACGUGGCUGUGGCUAGACUGCC [A6G A11C G17U A26C]	0.02
GGCAGCGCUCAACACAGCGUGGCAAAGUGGCUGUGGCUACACCGCC [A6C G40C U43C]	0.06
GGCAGCGCUCAACACAGCGUGGCAAAGUGGCUUUGGUUAGACUGCC [A6C G33U C37U]	0.06
GGCAGCGCUCAACACAGCGUGGCAAAGUGACUUUGGCUAGACUGUC [A6C G30A G33U C45U]	0.06
GGCAGGGCUCAACUCAGCGUGGUAAAGUGGCUGUGGCUAGACUGCA [A6G A14U C23U C46A]	0.01
GGCAGGGCUCACCACAGCGUGGCAAAGUGGCUGUGGCAAGACUGCC [A6G A12C U38A]	0.03
GGCAGCGCUCAACACAGCGCGGCUAAGUGGCUGUGGCUAGACUUCC [A6C U20C A24U G44U]	0.23
GGCAGCGCUCAACACAGCGUGGCAAAGUCCCUGUGGCUAGACUGCA [A6C G29C G30C C46A]	0.02
GGCAGGGCUCAGCACCGCGUGGCAUAGUGGCUGUCGCUAGACUGCC [A6G A12G A16C A25U G35C]	0.08
GGCAGCGCUCAACACAGCGUGGCAAAGUGGCUAUGGCUAGACUGGU [A6C G33A C45G C46U]	0.05
